Whole data set: some 81,000 sequences, median “one-hybrid fitness for binding parS DNA” near -0.17, cut for the highest 2% near 0.51. Some of the results follow.
B1: Caulobacter ParB omega fusion; a variant is named by its letters at X, in order, B8GW30 (parent)
chain: MESVVVGEPGMSEGRRGLGRGLSALLGEVDAAPAQAPGEQLGGSREAPIEILQRNPDQPRRTFREEDLEDLSNSIREKGVLQPILVRPSPDTAGEYQIVAGERAWRAAQRAGLKTVPIMVRELDDLAVLEIGIIENVQRADLNVLEEALSYKVLMEKFERTQENIAQTIGKSXSHVANXMRLLXLPDEVQSYLVSGELTAXHARAIAAAADPVALAKQIIEGGLSVRETEALARKAPNLSAGKSKGGRPPRVKDTDTQALESDLSSVLGLDVSIDHRGSTGTLTITYATLEQLDDLCNRLTRGI

Variants of: B1
Assay: one-hybrid fitness for binding parS DNA (scaled: cognate 1, non-cognate 0); higher = stronger binding
Conditions: with parS DNA site
In short: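 In E. coli USO, a HIS3 reporter with its site placed 19 bp from the promoter was used to select Caulobacter ParB variants randomised at four specificity codons. Growth lasted 48 hours at 37°C on histidine-free M9 containing 0.1 mM IPTG and 5 mM 3-AT. Fitness was taken as the log change in variant-to-wild-type read ratio from Illumina sequencing of pre- and post-selection plasmids, rescaled between the non-cognate and cognate sites.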

Variant	one-hybrid fitness for binding parS DNA
GTWE	0.297
YCSV	≤ 0.2
KYMG	≤ 0.2
ENTG	≤ 0.2
NHAI	≤ 0.2
THQT	≤ 0.2
GLGG	≤ 0.2
FCML	≤ 0.2
LTRE	≤ 0.2
QGHG	≤ 0.2
IFMG	≤ 0.2
SVMV	≤ 0.2
RRQR	≤ 0.2
HHTT	≤ 0.2
SPCV	≤ 0.2
PASL	≤ 0.2
GKKT	≤ 0.2
RFYL	≤ 0.2
TDPC	≤ 0.2
YSNC	0.215
TICM	≤ 0.2
IHIS	≤ 0.2
LTFC	≤ 0.2
DFLV	≤ 0.2

Variant	one-hybrid fitness for binding parS DNA
SLHW	≤ 0.2
YTKR	≤ 0.2
LLQC	≤ 0.2
RGRQ	≤ 0.2
NMTN	≤ 0.2
CRKA	≤ 0.2
NGGT	≤ 0.2
QLKA	≤ 0.2
RNRE	≤ 0.2
IADG	≤ 0.2
EKRH	≤ 0.2
LCRL	≤ 0.2
SWPG	≤ 0.2
QPEM	≤ 0.2
KLRM	≤ 0.2
IDQG	≤ 0.2
RSLM	0.32
QQSD	≤ 0.2
GHRR	≤ 0.2
YCMR	≤ 0.2
RMGE	≤ 0.2
TYRF	≤ 0.2
HYTV	≤ 0.2
ARPR	≤ 0.2

Variant	one-hybrid fitness for binding parS DNA
VMQS	≤ 0.2
RMAF	0.253
GPTI	≤ 0.2
SCHW	≤ 0.2
QENV	≤ 0.2
KVNC	≤ 0.2
EKSS	≤ 0.2
ISAY	≤ 0.2
LYKN	≤ 0.2
SINR	≤ 0.2
QVRR	≤ 0.2
PPTT	≤ 0.2
SFWF	≤ 0.2
HAWC	≤ 0.2
HMCS	≤ 0.2
CAPC	≤ 0.2
SPQA	≤ 0.2
NHND	≤ 0.2
RCRW	0.337
IMAC	≤ 0.2
FETR	≤ 0.2
DSPS	≤ 0.2
QGGL	≤ 0.2
PCES	≤ 0.2

Variant	one-hybrid fitness for binding parS DNA
FISR	≤ 0.2
DMTN	≤ 0.2
DPWK	≤ 0.2
VAWC	≤ 0.2
SGSC	≤ 0.2
MPRE	≤ 0.2
VMIM	≤ 0.2
YWVI	0.273
VALC	≤ 0.2
ARIR	≤ 0.2
KRMD	≤ 0.2
RRYV	≤ 0.2
VNNR	≤ 0.2
SDFC	≤ 0.2
DSTS	≤ 0.2
PEKS	≤ 0.2
IGKV	≤ 0.2
LQAR	≤ 0.2
PYII	≤ 0.2
DLWA	≤ 0.2
NWPD	≤ 0.2
LHSY	≤ 0.2
AMEV	≤ 0.2
NSQT	≤ 0.2

Variant	one-hybrid fitness for binding parS DNA
HHRT	≤ 0.2
EVKL	≤ 0.2
TSPG	≤ 0.2
ETVF	≤ 0.2
RITI	≤ 0.2
KEHG	≤ 0.2
LSMW	≤ 0.2
LQPC	≤ 0.2
DAAA	≤ 0.2
KRDK	≤ 0.2
HKNW	≤ 0.2
HLCW	≤ 0.2
HPPP	≤ 0.2
APDG	≤ 0.2
QLTH	≤ 0.2
QKCF	≤ 0.2
IYYC	≤ 0.2
RVEW	≤ 0.2
RFMK	≤ 0.2
IMFV	≤ 0.2
DRNT	≤ 0.2
RYTW	≤ 0.2
GQQY	≤ 0.2
RPEY	≤ 0.2

Variant	one-hybrid fitness for binding parS DNA
DPTM	≤ 0.2
WSSV	≤ 0.2
YAQM	≤ 0.2
DTLA	≤ 0.2
RYCY	0.39
SIIV	≤ 0.2
RQIQ	≤ 0.2
WTDE	≤ 0.2
NHHS	≤ 0.2
SGPW	≤ 0.2
WSDC	≤ 0.2
IARR	≤ 0.2
ATRS	≤ 0.2
YVDF	≤ 0.2
NEPG	≤ 0.2
DFNT	≤ 0.2
AHDG	≤ 0.2
EVRV	≤ 0.2
RMDD	≤ 0.2
HPAW	≤ 0.2
ITAD	≤ 0.2
RHDG	0.917
RGAI	≤ 0.2
HKPR	≤ 0.2

Variant	one-hybrid fitness for binding parS DNA
KMSM	≤ 0.2
KCTN	≤ 0.2
MGLC	≤ 0.2
WRKL	≤ 0.2
DTNM	≤ 0.2
QFLL	≤ 0.2
QPKQ	≤ 0.2
GGVR	≤ 0.2
VGLL	≤ 0.2
TMIS	≤ 0.2
SSDG	≤ 0.2
ISRK	≤ 0.2
DIWY	≤ 0.2
LGES	≤ 0.2
HTRP	≤ 0.2
VSLL	≤ 0.2
CARS	≤ 0.2
RARI	≤ 0.2
RLND	≤ 0.2
KQFV	≤ 0.2
ELRV	≤ 0.2
PFIM	≤ 0.2
GGMY	≤ 0.2
QCPA	≤ 0.2

Variant	one-hybrid fitness for binding parS DNA
IWES	≤ 0.2
CSWG	≤ 0.2
NNDL	≤ 0.2
GTEG	≤ 0.2
CITH	≤ 0.2
YQIS	≤ 0.2
HALF	≤ 0.2
RRTN	0.695
DFRY	≤ 0.2
SMST	≤ 0.2
PHCE	≤ 0.2
SPYG	≤ 0.2
NVQQ	≤ 0.2
YKDN	≤ 0.2
TQYL	≤ 0.2
PYTN	≤ 0.2
RCYT	0.963
KWRS	0.325
DIGK	≤ 0.2
GTAK	≤ 0.2
CHSY	≤ 0.2
SIAL	≤ 0.2
PFIR	≤ 0.2
HVNL	≤ 0.2

Variant	one-hybrid fitness for binding parS DNA
LGEG	≤ 0.2
TTMI	≤ 0.2
SKTY	≤ 0.2
RMYY	0.483
SLRM	≤ 0.2
LLAH	≤ 0.2
DCDT	≤ 0.2
RCLC	1.02
HDPM	≤ 0.2
EHKR	≤ 0.2
FMKK	≤ 0.2
WLLN	≤ 0.2
QNIS	≤ 0.2
QFPI	≤ 0.2
RYRQ	≤ 0.2
GRAV	≤ 0.2
KLGN	≤ 0.2
PVHL	≤ 0.2
IAPM	≤ 0.2
APAN	≤ 0.2
RMKN	0.432
CLDV	≤ 0.2
RQGF	0.234
RNHH	≤ 0.2

Variant	one-hybrid fitness for binding parS DNA
PMHT	≤ 0.2
RRNF	≤ 0.2
DVKT	≤ 0.2
PQPV	≤ 0.2
TQRL	≤ 0.2
STVT	≤ 0.2
RKHC	0.882
THRN	≤ 0.2
RPLK	≤ 0.2
CPGC	≤ 0.2
KPFR	≤ 0.2
TCCR	≤ 0.2
WSIR	≤ 0.2
NDME	≤ 0.2
ISPC	≤ 0.2
RVYG	1.02
QYPG	≤ 0.2
ELSN	≤ 0.2
YDHS	≤ 0.2
SHSW	≤ 0.2
GPLE	≤ 0.2
PGVR	≤ 0.2
PCCH	≤ 0.2
AGNN	≤ 0.2

Variant	one-hybrid fitness for binding parS DNA
MTHG	≤ 0.2
QGAM	≤ 0.2
QLQR	≤ 0.2
LAPQ	≤ 0.2
CWVG	≤ 0.2
EWGR	≤ 0.2
FGRR	≤ 0.2
KDNV	≤ 0.2
TTTY	≤ 0.2
RWTA	0.459
ACHY	≤ 0.2
HRHQ	≤ 0.2
PHPV	≤ 0.2
FQKR	≤ 0.2
PVTC	≤ 0.2
NIQN	≤ 0.2
KLGT	≤ 0.2
SPCL	≤ 0.2
LGRR	≤ 0.2
RGRR	≤ 0.2
GWES	≤ 0.2
AGLN	≤ 0.2
TRGW	≤ 0.2
VSPE	≤ 0.2

Variant	one-hybrid fitness for binding parS DNA
SAWG	≤ 0.2
NHDC	≤ 0.2
EMDG	≤ 0.2
QQLC	≤ 0.2
IRSA	≤ 0.2
RYGN	0.408
NCTT	≤ 0.2
RSCC	0.915
TSDA	≤ 0.2
HRRN	≤ 0.2
FLYG	≤ 0.2
VHEV	≤ 0.2
QQKR	≤ 0.2
QALN	≤ 0.2
QTPF	≤ 0.2
SVNG	≤ 0.2
HTGV	≤ 0.2
TDTV	≤ 0.2
HSGD	≤ 0.2
HRFP	≤ 0.2
MCYG	≤ 0.2
WDLR	≤ 0.2
TNAA	≤ 0.2
MAVE	≤ 0.2

Variant	one-hybrid fitness for binding parS DNA
TCVP	≤ 0.2
QWTW	≤ 0.2
HYQG	≤ 0.2
QLCF	≤ 0.2
IAVS	≤ 0.2
TLTH	≤ 0.2
QMTY	≤ 0.2
CQLS	≤ 0.2
HFHL	≤ 0.2
HDRP	≤ 0.2
MSLI	≤ 0.2
HNKY	≤ 0.2
RNWN	≤ 0.2
CPRV	≤ 0.2
ATQE	≤ 0.2
YVQC	≤ 0.2
PKYS	≤ 0.2
TVEL	≤ 0.2

— a collection of fitness landscapes (doi:10.1016/j.celrep.2020.107928)
